Measured values published in PubChem BioAssay AID504832 (National Center for Advancing Translational Sciences (NCATS), 2011).
About 18,000 (5.8%) of roughly 310,000 compounds were called active. The inconclusive results got no clear call from the source; some entries with a clear call stand among them for comparison. Calls come from the whole dose curve; as a rule, active = well fitted inhibition curve with a large enough effect; inconclusive = small, poorly fitted or top-dose-only effect, or another doubt; inactive = no such curve, though single readings can be large or run the other way. Potencies of inconclusive entries are left out as doubtful fits.

Test: Primary qHTS for delayed death inhibitors of the malarial parasite plastid, 48 hour incubation
Conditions: P. falciparum luciferase growth in erythrocytes; series mostly up to 28.7 µM
Procedure, shortened: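 Luciferase-expressing parasites in RBCs, 2% Hct / 0.1% parasitemia final; RPMI 1640 + 0.5% Albumax; 37 C, 5% CO2, one generation; luminescence read-out, lower signal = inhibition.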
Potency is the fitted concentration of half-maximal effect; tags give direction and shape of the fitted curve.

Question: Which Potency does the source give for `Cc1ccc(C)c(N(CC(=O)NCCSCc2ccco2)S(C)(=O)=O)c1` here?
Answer: inconclusive [inhibitor, single point]

Question: For `Cc1ccc(CNC(=O)Nc2ccc3c(c2)N(C)C(=O)CS3)cc1`, which Potency is on record?
Answer: inconclusive [inhibitor, single point]

Question: Which Potency does the source give for `CC/C(C)=N\Nc1nc(-c2cc3cc(OC)ccc3oc2=O)cs1` here?
Answer: inactive

Question: For `CC(C)NC(=O)C1CCN(C2CCN(C(=O)c3cc4c(s3)CCCCC4)CC2)CC1`, which Potency is on record?
Answer: inconclusive [inhibitor, single point]

Question: Which Potency does the source give for `COc1ccc(CCCC(=O)N/N=C/c2ccccc2OC)cc1` here?
Answer: inconclusive [inhibitor, full curve, poor fit]

Question: With `CCSc1nnc(Cn2c(=O)sc3ccccc32)n1-c1ccccc1C` as the molecule, how does the Potency read?
Answer: inactive

Question: With `CO/N=C/CC(=O)c1cnc(-c2ccc(Cl)cc2)s1` as the molecule, how does the Potency read?
Answer: inconclusive [inhibitor, single point]

Question: With `CC(=O)c1c(C)[nH]c(C(=O)NCCc2ccc(Cl)cc2)c1C` as the molecule, how does the Potency read?
Answer: inactive

Question: For `CCOCCCn1c(N)c(C(=O)Nc2sc3c(c2C(=O)OC)CCCC3)c2nc3ccccc3nc21`, which Potency is on record?
Answer: active: 14.7 µM

Question: For `COc1cc2ccccc2cc1C(=O)Nc1ccc(O)cc1`, which Potency is on record?
Answer: inconclusive [inhibitor, partial curve]

Question: Which Potency does the source give for `CC1(C)CC(=O)C(C=NCC2CCN(C(=O)Nc3ccc(Cl)c(Cl)c3)CC2)=C(O)C1` here?
Answer: inactive

Question: With `CCN(CCCNC(=O)COc1cc(=O)n(C)c2ccccc12)c1cccc(C)c1` as the molecule, how does the Potency read?
Answer: inconclusive [inhibitor, single point]

Question: With `CCN(CC)c1ccc(NC(=O)COc2ccc(N(C)S(=O)(=O)c3cccs3)cc2)cc1` as the molecule, how does the Potency read?
Answer: inconclusive [inhibitor, single point]

Question: With `CCC1COCCS(=O)(=O)N1Cc1ccc(Cl)cc1` (centres undefined) as the molecule, how does the Potency read?
Answer: inactive

Question: Which Potency does the source give for `CCN(CC)CCCNC(=S)N1CCn2c(nc3ccccc32)C1` here?
Answer: inconclusive [inhibitor, partial curve, poor fit]

Question: Which Potency does the source give for `COc1ccc(SC[C@H](C)CN2CC[C@H](C)CCC2=O)cc1` here?
Answer: inconclusive [inhibitor, single point]

Question: With `O=C(OCC(=O)N1CCN(C(=O)c2ccco2)CC1)c1cn(-c2ccccc2)nc1-c1ccccc1` as the molecule, how does the Potency read?
Answer: inconclusive [inhibitor, single point]

Question: With `CCN(CC)c1ccc(C2C(C(=O)OCCOC)=C(C)NC3=C2C(=O)CC(C)(C)C3)cc1` (centres undefined) as the molecule, how does the Potency read?
Answer: inconclusive [inhibitor, partial curve]

Question: With `CCOC(=O)CC1C(=O)NCCN1S(=O)(=O)c1ccc(Cl)cc1` (centres undefined) as the molecule, how does the Potency read?
Answer: inconclusive [inhibitor, full curve, poor fit]
